{"source": "PubChem BioAssay AID485294", "about": "(National Center for Advancing Translational Sciences (NCATS), 2010)", "note": "Hit rate of the full screen: of about 370,000 compounds, about 150 (0.041%) were called active. The shares of active, inactive and inconclusive entries below differ from those in the screen. The call rests on the fitted dose curve; in most records, active means well fitted inhibition curve with a large enough effect; inconclusive means small, poorly fitted or top-dose-only effect; inactive means flat fitted curve, though single readings scatter. No potency is given beside an inconclusive call; the fits are too rough. Potency means the concentration at half of the fitted maximal effect; tags describe the fitted curve by direction and shape.", "data": [{"biological_target": "Beta-lactamase (Escherichia coli (strain K12)) (UniProt P00811)", "sequence (P00811 whole entry, looked up)": "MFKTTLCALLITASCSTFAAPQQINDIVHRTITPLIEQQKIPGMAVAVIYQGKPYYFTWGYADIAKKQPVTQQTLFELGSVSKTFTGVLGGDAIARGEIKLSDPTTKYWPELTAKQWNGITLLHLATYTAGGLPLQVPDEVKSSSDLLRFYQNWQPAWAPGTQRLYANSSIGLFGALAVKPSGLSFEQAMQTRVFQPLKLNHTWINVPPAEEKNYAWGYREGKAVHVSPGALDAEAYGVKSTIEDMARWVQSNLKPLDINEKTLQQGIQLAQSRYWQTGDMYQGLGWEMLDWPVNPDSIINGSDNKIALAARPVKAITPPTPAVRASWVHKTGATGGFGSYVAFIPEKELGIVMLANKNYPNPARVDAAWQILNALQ", "assay": "qHTS Inhibitors of AmpC Beta-Lactamase (assay with detergent); further: nearly all actives have a fitted effect of over 25% in size;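 on activity change, negative = inhibition: 0% = no-compound wells and -100% = no-enzyme wells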", "conditions": "AmpC hydrolysis of nitrocefin, absorbance 480 nm, 0.01% Triton; activity change, negative = inhibition: at 114 µM (top of the series)", "procedure,_shortened": "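AmpC (5.3 nM in the dispensed reagent) in 20 mM phosphate pH 7.0 with 0.01% (detergent screen) or 0.0001% Triton X-100 was preincubated with compounds for 15 min at room temperature. Nitrocefin was then added from an 800 uM solution, and hydrolysis was followed at 480 nm.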", "values": [{"smiles": "Cc1cc(C)cc(C(=O)N2CC(C)SC2=Nc2cccc(S(=O)(=O)N(C)C)c2)c1", "note": "(stereo unspecified)", "activity change, negative = inhibition": "inactive: -11.4%"}, {"smiles": "COc1ccc(NC(=O)CSc2nnc(Cc3cccs3)n2C)cc1", "Potency": "inconclusive [inhibitor, partial curve, poor fit]"}, {"smiles": "O=C(NCCc1ccccc1)C1CCC(CNc2c(N3CCCCC3)c(=O)c2=O)CC1", "note": "(stereo unspecified)", "Potency": "inconclusive [inhibitor, full curve, poor fit]"}, {"smiles": "CNC(=O)c1c(NC(=O)CCS(=O)(=O)c2ccc(Cl)cc2)sc2c1CCN(C(=O)OC)C2", "Potency": "inconclusive [inhibitor, partial curve, poor fit]"}, {"smiles": "CCCCCc1ccc(OCCCC[n+]2ccc(C)cc2)c(CCCCC)c1", "activity change, negative = inhibition": "inactive: -5.55%"}, {"smiles": "COc1ccc2nc(N(Cc3cccnc3)C(=O)CCc3ccccc3)sc2c1", "activity change, negative = inhibition": "inactive: 5.81%"}, {"smiles": "O=C(Nc1ccccc1)Nc1ccccc1Br", "Potency": "inconclusive [inhibitor, partial curve]"}, {"smiles": "O=C(CCCN1CC=C(n2c(=O)[nH]c3ccccc32)CC1)c1ccc(F)cc1", "Potency": "inconclusive [inhibitor, partial curve, poor fit]"}, {"smiles": "O=C(O)c1ccc(-n2nc(-c3ccccc3)c3ccccc3c2=O)cc1", "Potency": "inconclusive [inhibitor, full curve, poor fit]"}, {"smiles": "Oc1cccc(/C=N/NP(=S)(c2ccccc2)c2ccccc2)c1", "activity change, negative = inhibition": "inactive: -7.73%"}, {"smiles": "COc1ccc(-c2csc(NC(=O)COC(=O)Cc3ccccc3)n2)cc1OC", "Potency": "inconclusive [inhibitor, partial curve, poor fit]"}, {"smiles": "CCC1CCCCN1CCCNC(=O)c1ccc(CS(=O)(=O)c2ccccc2OC)o1", "note": "(stereo unspecified)", "Potency": "inconclusive [inhibitor, full curve]"}, {"smiles": "CC(/C=N/N1CCN(c2ccccc2)CC1)=C\\c1ccco1", "Potency": "inconclusive [inhibitor, full curve]"}, {"smiles": "Cc1ccc(C(=O)C2=C(O)C(=O)N(Cc3cccnc3)C2c2ccc(Cl)cc2)o1", "note": "(stereo unspecified)", "Potency": "inconclusive [inhibitor, full curve, poor fit]"}, {"smiles": "Cc1cc(/C=C2\\C(=O)NC(=O)N(c3ccc(F)cc3)C2=O)c(C)n1-c1ccc(C(=O)O)cc1", "activity change, negative = inhibition": "inactive: -11%"}, {"smiles": "OCCSc1nc(-c2cccnc2)nc2ccccc12", "Potency": "inconclusive [inhibitor, single point]"}, {"smiles": "O=C(c1ccc(Cl)c(S(=O)(=O)NCc2ccccc2)c1)N1CCN(c2ccccn2)CC1", "Potency": "inconclusive [inhibitor, full curve, poor fit]"}, {"smiles": "O=C(c1cc(COc2c(F)cccc2F)on1)N1CCCCCC1", "activity change, negative = inhibition": "inactive: -3.45%"}, {"smiles": "O=C(CCSCCC(=O)NCCN1CCOCC1)NCCN1CCOCC1", "Potency": "inconclusive [inhibitor, full curve]"}, {"smiles": "COc1cc2c(cc1OC)C1=C(C#N)CN(C3CCCCC3)CN1CC2", "Potency": "inconclusive [inhibitor, single point]"}, {"smiles": "COc1cc(C(=O)Nc2cccc(NC(=O)c3cccs3)c2)cc(OC)c1OC", "activity change, negative = inhibition": "inactive: -9.78%"}, {"smiles": "COc1ccc(Cl)cc1S(=O)(=O)NCCCn1ccnc1", "Potency": "inconclusive [inhibitor, full curve, poor fit]"}, {"smiles": "Cc1ccc(C(=O)OC(C)C(=O)c2cc(C)c(C)cc2C)o1", "note": "(stereo unspecified)", "activity change, negative = inhibition": "inactive: -6.24%"}, {"smiles": "CCc1ccc2c(c1)c1nnc(NN)nc1n2CC", "Potency": "inconclusive [inhibitor, full curve, poor fit]"}, {"smiles": "COCCn1c(C)cc(C(=O)CSc2ncnc3sc4c(c23)CCC4)c1C", "Potency": "inconclusive [inhibitor, full curve]"}, {"smiles": "Cc1cc(C(=O)N/N=C/c2ccc([N+](=O)[O-])s2)c2ccccc2n1", "activity change, negative = inhibition": "inactive: -6.29%"}, {"smiles": "CCc1cccc(CC)c1-n1c(-c2cccnc2)n[nH]c1=S", "Potency": "inconclusive [inhibitor, single point]"}, {"smiles": "O=C(CCc1nnc2ccc(NCc3ccco3)nn12)Nc1cc(F)ccc1F", "Potency": "inconclusive [inhibitor, full curve, poor fit]"}, {"smiles": "CCOC(=O)N1CCN(C(=O)c2cc3cc(F)ccc3[nH]2)CC1", "Potency": "inconclusive [inhibitor, single point]"}, {"smiles": "CN1CCN(C(=O)/C(=C/c2ccccc2Cl)NC(=O)c2ccccc2)CC1", "Potency": "inconclusive [inhibitor, single point]"}, {"smiles": "O=C(NCc1ccc(F)cc1)C1CCN(C(=O)c2ccc(-n3ccc4ccccc43)s2)CC1", "activity change, negative = inhibition": "inactive: 4.55%"}, {"smiles": "O=c1oc2cc(O)ccc2c2c1CCCC2", "Potency": "inconclusive [inhibitor, full curve]"}, {"smiles": "CCC(C)c1ccccc1N1CC(C(=O)N2CCN(S(=O)(=O)c3ccc(F)cc3)CC2)CC1=O", "note": "(stereo unspecified)", "Potency": "inconclusive [inhibitor, partial curve, poor fit]"}, {"smiles": "Cc1nn(C)c(C)c1CN(C)C(=O)CCCC(=O)O", "Potency": "inconclusive [inhibitor, partial curve]"}, {"smiles": "CCCCn1c(N)c(N(CCOC)C(=O)c2cc(-c3ccc(F)cc3)nc3ccccc23)c(=O)[nH]c1=O", "Potency": "inconclusive [inhibitor, partial curve, poor fit]"}, {"smiles": "CCOC(=O)c1cnn2c(C(F)(F)F)cc(-c3ccco3)nc12", "Potency": "inconclusive [inhibitor, full curve, poor fit]"}, {"smiles": "O=C(Nc1ccc(Nc2ccccc2)cc1)c1ccccc1F", "Potency": "inconclusive [inhibitor, partial curve, poor fit]"}, {"smiles": "CCOC(=O)c1c(NC(=O)CSc2c[nH]c3ccccc23)sc2c1CCCC2", "Potency": "inconclusive [inhibitor, full curve]"}, {"smiles": "c1ccc(-c2cn3c(n2)CCc2ccc4cccnc4c2-3)cc1", "Potency": "inconclusive [inhibitor, full curve, poor fit]"}, {"smiles": "COc1cccc(NC(=O)Cn2cc(C=O)c3ccccc32)c1", "Potency": "inconclusive [inhibitor, single point]"}, {"smiles": "O=C(/C=C\\Nc1ccc2c(c1)OCO2)c1ccc(Cl)s1", "activity change, negative = inhibition": "inactive: -13.7%"}, {"smiles": "O=C(NCc1ccc2c(c1)OCO2)c1ccc(N2CCCCCC2)c([N+](=O)[O-])c1", "Potency": "inconclusive [inhibitor, full curve]"}, {"smiles": "O=C(CSc1ccc(Cl)cc1)NCC1CCCO1", "note": "(stereo unspecified)", "Potency": "inconclusive [inhibitor, full curve, poor fit]"}, {"smiles": "COC(=O)COc1cc(C)cc2oc(=O)c3c(c12)CCCC3", "Potency": "inconclusive [inhibitor, full curve]"}, {"smiles": "Cc1ccc(C(=O)Nc2nnc(S(=O)(=O)N3CCOCC3)s2)cc1", "Potency": "inactive"}, {"smiles": "CCn1ccnc1CNC(=O)C1CCC(=O)N(Cc2cccc(C(F)(F)F)c2)C1", "note": "(stereo unspecified)", "Potency": "inconclusive [inhibitor, full curve]"}, {"smiles": "COc1ccc(-c2noc(=O)n2Cc2ccccc2F)cc1", "Potency": "inconclusive [inhibitor, partial curve, poor fit]"}, {"smiles": "Cc1ccc(S(=O)(=O)NNC(=O)C2CCCCC2)cc1", "Potency": "inconclusive [inhibitor, full curve, poor fit]"}, {"smiles": "CCOC(=O)c1ccccc1NC(=O)COC(=O)c1ccccc1C(=O)N(C)c1ccccc1", "Potency": "inconclusive [inhibitor, full curve, poor fit]"}, {"smiles": "COc1ccc(CCC(=O)N2CCN(c3ccc([N+](=O)[O-])cc3)CC2)cc1OC", "Potency": "inconclusive [inhibitor, full curve, poor fit]"}, {"smiles": "O=C(NNC(=O)c1ccccc1Cl)c1ccc(-n2cncn2)c([N+](=O)[O-])c1", "Potency": "inconclusive [inhibitor, full curve, poor fit]"}, {"smiles": "COC(=O)c1sc(S(=O)(=O)N2CCC(C)CC2)c(C(=O)OC)c1C", "Potency": "inconclusive [inhibitor, single point]"}, {"smiles": "CC(C)COC(=O)CCn1[nH]c(=O)c2ccccc2c1=O", "Potency": "inconclusive [inhibitor, partial curve, poor fit]"}, {"smiles": "c1ccc(COc2nsnc2N2CCOCC2)cc1", "Potency": "inconclusive [inhibitor, full curve, poor fit]"}, {"smiles": "Cc1cc(C)nc(SCCCNCc2ccc(Br)cc2)n1", "Potency": "inconclusive [inhibitor, full curve, poor fit]"}, {"smiles": "COc1ccc(C(=O)OCC(=O)NCC2CCCO2)c(F)c1", "note": "(stereo unspecified)", "activity change, negative = inhibition": "inactive: -3.38%"}, {"smiles": "CCOc1cccc(C2C(C(=O)c3ccco3)=C(O)C(=O)N2Cc2ccncc2)c1", "note": "(stereo unspecified)", "Potency": "inconclusive [inhibitor, full curve]"}, {"smiles": "CCC(=O)Nc1ccc(NC(=S)NC(=O)c2oc3ccccc3c2C)cc1", "activity change, negative = inhibition": "inactive: -5.23%"}, {"smiles": "CSc1ccc(/C=N\\NC(=O)CNc2ccc(C)cc2)cc1", "Potency": "inconclusive [inhibitor, full curve, poor fit]"}, {"smiles": "N#Cc1ccc(N/N=C/c2ccccc2)c([N+](=O)[O-])c1", "Potency": "inconclusive [inhibitor, full curve, poor fit]"}, {"smiles": "O=C(C1=C(O)C(=O)N(c2ncccn2)C1c1ccc(Cl)c(Cl)c1)c1ccco1", "note": "(stereo unspecified)", "activity change, negative = inhibition": "inactive: -3.6%"}, {"smiles": "CCN(CC(=O)Nc1ccc(NC(C)=O)cc1)C(=O)c1cccc(-n2cccc2)c1", "Potency": "inconclusive [inhibitor, full curve, poor fit]"}, {"smiles": "Cc1nc(N2CCOCC2)c2oc3ccccc3c2n1", "Potency": "inconclusive [inhibitor, single point]"}, {"smiles": "CCCCN(C(=O)c1ccc(NC(=O)C(C)C)cc1)c1ccccc1", "activity change, negative = inhibition": "inactive: -1.56%"}, {"smiles": "CSc1ccccc1OCc1cc(C(=O)NC(C)c2cnn(C)c2)no1", "note": "(stereo unspecified)", "activity change, negative = inhibition": "inactive: -1.89%"}, {"smiles": "COc1ccc(N2C(=O)/C(=C/c3ccc(C)o3)C(=O)NC2=S)cc1", "activity change, negative = inhibition": "inactive: -4.76%"}]}]}
